From patent publication US20250243260A1 (ALPINE IMMUNE SCIENCES, published 2025)

The binders below were run against CD28 on Jurkat/IL2-reporter cells (UniProt P10747 19-220, limits assumed) (assay: cell-based or functional assay).

Binder	Fold Increase over WT at 50 nM [fold]	Rel. Luminescence Units (RLU) 2 nM [RLU]	Rel. Luminescence Units (RLU) 10 nM [RLU]	Rel. Luminescence Units (RLU) 50 nM [RLU]	Rel. Luminescence Units (RLU) 250 nM [RLU]
CD80_227 variant CD80 IgV-Fc (V11W, T28H, D46Q, V68L, L85E) (Fc fusion) VIHVTKEVKEWATLSCGHNVSVEELAQHRIYWQKEKKMVLTMMSGQMNIWPEYKNRTIFDITNNLSILILALRPSDEGTYECVVEKYEKDAFKREHLAEVTLSVKADGSGGGGS[omitted - human IgG4 Fc with S228P (EU numbers)]	0.99	3000	2470	2420	2520
CD80_228 variant CD80 IgV-Fc (E7Q, V11Y, R29H, M47L, V68T) (Fc fusion) VIHVTKQVKEYATLSCGHNVSVEELAQTHIYWQKEKKMVLTMMSGDLNIWPEYKNRTIFDITNNLSITILALRPSDEGTYECVVLKYEKDAFKREHLAEVTLSVKADGSGGGGS[omitted - human IgG4 Fc with S228P (EU numbers)]	1.37	2880	3220	3340	4380
CD80_229 variant CD80 IgV-Fc (V11Y, M47V, A71G, L85E) (Fc fusion) VIHVTKEVKEYATLSCGHNVSVEELAQTRIYWQKEKKMVLTMMSGDVNIWPEYKNRTIFDITNNLSIVILGLRPSDEGTYECVVEKYEKDAFKREHLAEVTLSVKADGSGGGGS[omitted - human IgG4 Fc with S228P (EU numbers)]	1.08	2500	2380	2640	2640
CD80_230 variant CD80 IgV-Fc (E10G, Q27F, D46N, A71G, D90G) (Fc fusion) VIHVTKEVKGVATLSCGHNVSVEELAFTRIYWQKEKKMVLTMMSGNMNIWPEYKNRTIFDITNNLSIVILGLRPSDEGTYECVVLKYEKGAFKREHLAEVTLSVKADGSGGGGS[omitted - human IgG4 Fc with S228P (EU numbers)]	2.12	2450	3240	5180	7780
CD80_231 variant CD80 IgV-Fc (V11W, T28Y, M47L) (Fc fusion) VIHVTKEVKEWATLSCGHNVSVEELAQYRIYWQKEKKMVLTMMSGDLNIWPEYKNRTIFDITNNLSIVILALRPSDEGTYECVVLKYEKDAFKREHLAEVTLSVKADGSGGGGS[omitted - human IgG4 Fc with S228P (EU numbers)]	1.12	2450	2450	2730	3260
CD80_168 variant CD80 IgV-Fc (K9N, E10G, N63S, L85E) (Fc fusion) VIHVTKEVNGVATLSCGHNVSVEELAQTRIYWQKEKKMVLTMMSGDMNIWPEYKNRTIFDITSNLSIVILALRPSDEGTYECVVEKYEKDAFKREHLAEVTLSVKADGSGGGGS[omitted - human IgG4 Fc with S228P (EU numbers)]	1.09	2260	2660	2650	2520
CD80_232 variant CD80 IgV-Fc (V11F, T28Y, M47L) (Fc fusion) VIHVTKEVKEFATLSCGHNVSVEELAQYRIYWQKEKKMVLTMMSGDLNIWPEYKNRTIFDITNNLSIVILALRPSDEGTYECVVLKYEKDAFKREHLAEVTLSVKADGSGGGGS[omitted - human IgG4 Fc with S228P (EU numbers)]	1.7	2710	3100	4160	5960
CD80_233 variant CD80 IgV-Fc (V11Y, T28Y, M47L, V68M) (Fc fusion) VIHVTKEVKEYATLSCGHNVSVEELAQYRIYWQKEKKMVLTMMSGDLNIWPEYKNRTIFDITNNLSIMILALRPSDEGTYECVVLKYEKDAFKREHLAEVTLSVKADGSGGGGS[omitted - human IgG4 Fc with S228P (EU numbers)]	4.74	9610	10100	11600	12900
CD80_234 variant CD80 IgV-Fc (V11Y, T28Y, M47L, V68L) (Fc fusion) VIHVTKEVKEYATLSCGHNVSVEELAQYRIYWQKEKKMVLTMMSGDLNIWPEYKNRTIFDITNNLSILILALRPSDEGTYECVVLKYEKDAFKREHLAEVTLSVKADGSGGGGS[omitted - human IgG4 Fc with S228P (EU numbers)]	5.04	6240	10400	12300	13600
CD80_235 variant CD80 IgV-Fc (V11Y, M47L, A71G) (Fc fusion) VIHVTKEVKEYATLSCGHNVSVEELAQTRIYWQKEKKMVLTMMSGDLNIWPEYKNRTIFDITNNLSIVILGLRPSDEGTYECVVLKYEKDAFKREHLAEVTLSVKADGSGGGGS[omitted - human IgG4 Fc with S228P (EU numbers)]	3.5	3380	4010	8540	12600
CD80_236 variant CD80 IgV-Fc (V11Y, T28Y, M47L, A71G) (Fc fusion) VIHVTKEVKEYATLSCGHNVSVEELAQYRIYWQKEKKMVLTMMSGDLNIWPEYKNRTIFDITNNLSIVILGLRPSDEGTYECVVLKYEKDAFKREHLAEVTLSVKADGSGGGGS[omitted - human IgG4 Fc with S228P (EU numbers)]	5.48	3790	8250	13400	16600
CD80_238 variant CD80 IgV-Fc (V11Y, D46E, M47V, V68M) (Fc fusion) VIHVTKEVKEYATLSCGHNVSVEELAQTRIYWQKEKKMVLTMMSGEVNIWPEYKNRTIFDITNNLSIMILALRPSDEGTYECVVLKYEKDAFKREHLAEVTLSVKADGSGGGGS[omitted - human IgG4 Fc with S228P (EU numbers)]	4.02	2840	4220	9820	13100
CD80_239 variant CD80 IgV-Fc (V11Y, T28Y, D46E, M47V) (Fc fusion) VIHVTKEVKEYATLSCGHNVSVEELAQYRIYWQKEKKMVLTMMSGEVNIWPEYKNRTIFDITNNLSIVILALRPSDEGTYECVVLKYEKDAFKREHLAEVTLSVKADGSGGGGS[omitted - human IgG4 Fc with S228P (EU numbers)]	1.7	2080	2350	4140	8550
CD80_240 variant CD80 IgV-Fc (V11Y, T28Y, D46E, M47V, V68M) (Fc fusion) VIHVTKEVKEYATLSCGHNVSVEELAQYRIYWQKEKKMVLTMMSGEVNIWPEYKNRTIFDITNNLSIMILALRPSDEGTYECVVLKYEKDAFKREHLAEVTLSVKADGSGGGGS[omitted - human IgG4 Fc with S228P (EU numbers)]	4.52	6540	8450	11000	12400
CD80_241 variant CD80 IgV-Fc (E10S, V11F, T28Y, M47L) (Fc fusion) VIHVTKEVKSFATLSCGHNVSVEELAQYRIYWQKEKKMVLTMMSGDLNIWPEYKNRTIFDITNNLSIVILALRPSDEGTYECVVLKYEKDAFKREHLAEVTLSVKADGSGGGGS[omitted - human IgG4 Fc with S228P (EU numbers)]	3.13	3330	4960	7640	10500
CD80_242 variant CD80 IgV-Fc (V11F, T28Y, M47L, T62S) (Fc fusion) VIHVTKEVKEFATLSCGHNVSVEELAQYRIYWQKEKKMVLTMMSGDLNIWPEYKNRTIFDISNNLSIVILALRPSDEGTYECVVLKYEKDAFKREHLAEVTLSVKADGSGGGGS[omitted - human IgG4 Fc with S228P (EU numbers)]	2.38	3110	4230	5820	8850
CD80_169 variant CD80 IgV-Fc (E10G, E35G, D46E, M47V, V68M) (Fc fusion) VIHVTKEVKGVATLSCGHNVSVEELAQTRIYWQKGKKMVLTMMSGEVNIWPEYKNRTIFDITNNLSIMILALRPSDEGTYECVVLKYEKDAFKREHLAEVTLSVKADGSGGGGS[omitted - human IgG4 Fc with S228P (EU numbers)]	3.35	3890	5400	8170	13100
CD80_243 variant CD80 IgV-Fc (V11Y, M47L, A71G, Y87R) (Fc fusion) VIHVTKEVKEYATLSCGHNVSVEELAQTRIYWQKEKKMVLTMMSGDLNIWPEYKNRTIFDITNNLSIVILGLRPSDEGTYECVVLKREKDAFKREHLAEVTLSVKADGSGGGGS[omitted - human IgG4 Fc with S228P (EU numbers)]	3.11	2330	3520	7590	10700
CD80_244 variant CD80 IgV-Fc (V11Y, T28Y, M47L, Y87R) (Fc fusion) VIHVTKEVKEYATLSCGHNVSVEELAQYRIYWQKEKKMVLTMMSGDLNIWPEYKNRTIFDITNNLSIVILALRPSDEGTYECVVLKREKDAFKREHLAEVTLSVKADGSGGGGS[omitted - human IgG4 Fc with S228P (EU numbers)]	3.09	2320	3000	7540	11500
